Screen size: about 220,000 compounds; about 5,700 (2.6%) were called active. This list was built around the results that the source calls inconclusive (neither active nor inactive); the mix of calls is not that of the screen. Calls come from the whole dose curve; as a rule, active = well fitted inhibition curve with a large enough effect; inconclusive = small, poorly fitted or top-dose-only effect; inactive = no such curve, though single readings can be large or run the other way. Potencies of inconclusive entries are doubtful fits and often do not repeat.
These compounds were tested against Lysine-specific demethylase 5B (Homo sapiens) (UniProt Q9UGL1) (assay: Primary screen for KDM5B Histone Demethylases FDH-coupled qHTS). Conditions: FDH-coupled NADH fluorescence (FDH is formaldehyde dehydrogenase); activity change, negative = inhibition: at 57.7 µM (top of the series) unless noted.
How it was run: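 Coupled FDH/NAD⁺ fluorescence readout. KDM5BΔAP 200 nM final; compound titration, 10 min RT preincubation; substrate mix 12.5 µM H3K4me3, 25 µM 2-OG, 50 µM Fe(II), 100 µM ascorbate, 0.25 mM NAD⁺, 0.25 U/mL FDH; ΔRFU over 30 min.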
Note: nearly all actives have a fitted effect of over 70% in size.
Potency is the fitted concentration of half-maximal effect; tags give direction and shape of the fitted curve.
Throughout, for activity change, negative = inhibition: 0% is about no effect.

UniProt Q9UGL1, sequence (Q9UGL1 whole entry, looked up): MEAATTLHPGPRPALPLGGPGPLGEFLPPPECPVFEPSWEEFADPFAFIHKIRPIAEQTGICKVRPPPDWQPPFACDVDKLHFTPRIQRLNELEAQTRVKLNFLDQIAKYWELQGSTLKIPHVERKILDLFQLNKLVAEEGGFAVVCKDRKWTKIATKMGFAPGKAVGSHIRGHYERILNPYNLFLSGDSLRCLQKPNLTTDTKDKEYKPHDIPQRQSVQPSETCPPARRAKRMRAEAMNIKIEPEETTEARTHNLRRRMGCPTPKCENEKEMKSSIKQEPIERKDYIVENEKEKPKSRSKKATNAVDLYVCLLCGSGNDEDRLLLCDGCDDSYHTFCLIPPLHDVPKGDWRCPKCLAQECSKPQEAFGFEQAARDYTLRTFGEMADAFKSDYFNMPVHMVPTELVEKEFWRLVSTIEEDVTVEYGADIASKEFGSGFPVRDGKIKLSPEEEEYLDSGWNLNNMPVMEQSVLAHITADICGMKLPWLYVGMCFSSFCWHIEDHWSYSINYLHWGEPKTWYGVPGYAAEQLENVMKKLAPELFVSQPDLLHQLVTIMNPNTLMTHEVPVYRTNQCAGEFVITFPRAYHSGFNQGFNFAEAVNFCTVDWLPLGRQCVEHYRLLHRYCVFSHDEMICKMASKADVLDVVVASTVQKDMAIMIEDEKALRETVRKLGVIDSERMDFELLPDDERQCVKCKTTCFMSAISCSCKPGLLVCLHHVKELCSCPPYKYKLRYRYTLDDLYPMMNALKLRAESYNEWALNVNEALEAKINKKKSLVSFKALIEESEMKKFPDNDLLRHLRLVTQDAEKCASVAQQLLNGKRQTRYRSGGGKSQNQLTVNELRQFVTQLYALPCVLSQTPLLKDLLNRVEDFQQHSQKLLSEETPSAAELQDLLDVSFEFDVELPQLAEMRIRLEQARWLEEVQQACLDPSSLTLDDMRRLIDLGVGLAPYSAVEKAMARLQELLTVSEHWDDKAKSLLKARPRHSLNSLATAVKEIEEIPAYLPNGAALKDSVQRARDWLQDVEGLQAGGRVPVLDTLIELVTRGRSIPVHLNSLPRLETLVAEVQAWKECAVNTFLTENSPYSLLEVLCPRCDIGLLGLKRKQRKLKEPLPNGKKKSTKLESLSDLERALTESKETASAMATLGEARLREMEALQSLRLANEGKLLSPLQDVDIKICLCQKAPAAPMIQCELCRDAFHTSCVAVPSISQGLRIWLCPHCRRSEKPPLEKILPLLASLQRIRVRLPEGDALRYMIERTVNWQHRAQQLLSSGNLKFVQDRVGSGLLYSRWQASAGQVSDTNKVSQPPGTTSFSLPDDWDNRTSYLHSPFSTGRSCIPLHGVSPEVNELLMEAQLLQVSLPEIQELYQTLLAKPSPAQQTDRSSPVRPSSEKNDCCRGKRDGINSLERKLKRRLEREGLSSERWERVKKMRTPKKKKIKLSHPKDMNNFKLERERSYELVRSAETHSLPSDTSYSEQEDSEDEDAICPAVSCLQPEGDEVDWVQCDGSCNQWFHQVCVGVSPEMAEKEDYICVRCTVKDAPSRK

Q: Which “activity change, negative = inhibition” value does the source give for `COc1cccc(C(=O)NCCc2csc(-c3cccc(F)c3)n2)c1OC` here?
A: inactive: -27.5%

Q: Which Potency does the source give for `Cc1ccc(CCNC(=O)C2CCN(c3cc(C(F)(F)F)nc(C)n3)CC2)cc1` here?
A: inconclusive: 35.5 µM [inhibitor, single point]

Q: Which Potency does the source give for `CCNC(=O)c1c2c(nc3ccccc13)C(=O)N(C1CCCCC1)C2` here?
A: inconclusive: 35.5 µM [inhibitor, partial curve, poor fit]

Q: Which Potency does the source give for `O=C(Cn1c(SCc2ccccc2F)nc2cccnc21)Nc1ccc(F)c(Cl)c1` here?
A: inconclusive: 31.6 µM [inhibitor, partial curve, poor fit]

Q: Which “activity change, negative = inhibition” value does the source give for `Clc1ccccc1CSc1nc(CN2CCOCC2)nc2ccccc12` here?
A: inactive: 9.3%

Q: For `O=C(c1ccsc1)N1CCCC2(C1)Nc1cccnc1NC2=NCc1ccccc1` (stereo not drawn), which Potency is on record?
A: active: 28.2 µM

Q: `CCc1cccc(NC(=O)Cn2ncc3c([nH]c4ccc(C)cc43)c2=O)c1` was tested. Which Potency did it give?
A: inconclusive: 28.2 µM [inhibitor, single point]

Q: `CCOc1ccccc1NC(=O)CCc1c(C)nc2c3cccnc3nn2c1C` was tested. Which Potency did it give?
A: inconclusive: 28.2 µM [inhibitor, partial curve, poor fit]

Q: For `CC(C)c1nc2nccc(-c3ccc(F)cc3)n2n1`, which Potency is on record?
A: active: 28.2 µM

Q: How did the “activity change, negative = inhibition” value turn out when `COc1ccc(Cl)cc1C1CC(=O)Nc2cc3c(cc21)OCCO3` (stereo not drawn) was run?
A: inactive: 5.99%

Q: `CCn1c(=O)n(CC)c2cc(N3CCCC3)c(NC(=O)Nc3cc(Cl)c(OC)cc3OC)cc21` was tested. Which “activity change, negative = inhibition” value did it give?
A: inactive: 11.2%

Q: Which “activity change, negative = inhibition” value does the source give for `COc1cccc(C2Cn3nnc(-c4nc(-c5cccc(C)c5)no4)c3CO2)c1` (stereo not drawn) here?
A: inactive: 5.17%

Q: Which Potency does the source give for `CC(C)N1C[C@H](O)C[C@H]1c1nnc2n1CCN(C(=O)c1cnccn1)CC2` here?
A: inconclusive: 31.6 µM [inhibitor, partial curve, poor fit]

Q: With `O=C(c1cnc(N2CCCCC2)c2ccccc12)N1CCN(c2cccc(Cl)c2)CC1` as the compound, how does the Potency read?
A: inconclusive: 39.8 µM [inhibitor, partial curve, poor fit]

Q: With `COc1ccc(-c2nc(C3CC3)nc3c2CCN(CC2CCCCC2)CC3)cc1` as the compound, how does the Potency read?
A: active: 25.1 µM

Q: How did the “activity change, negative = inhibition” value turn out when `CC1=C[C@@H](CNC(=O)Cn2cnnn2)[C@H](C(C)C)C[C@H]1Cc1nc2ccccc2n1C` was run?
A: inactive: 3.29% [at 86.2 µM]

Q: `Cn1nc(C(=O)Nc2cc(C(F)(F)F)cc(C(F)(F)F)c2)c2ccccc2c1=O` was tested. Which “activity change, negative = inhibition” value did it give?
A: inactive: 21.6%

Q: How did the “activity change, negative = inhibition” value turn out when `O=C(CC1C(=O)Nc2nc(SCc3ccccc3)nn21)Nc1ccccc1` (stereo not drawn) was run?
A: inactive: -12.3%

Q: With `O=C(O)CNC(=O)CNC(=O)CCn1c(-c2ccccc2)cc2ccccc21` as the compound, how does the Potency read?
A: inconclusive: 22.4 µM [inhibitor, partial curve, poor fit]

Q: `COc1cccc(-c2cc3c(=O)n(CCNC(=O)c4ccc(OC)c(F)c4)ccn3n2)c1` was tested. Which Potency did it give?
A: active: 20 µM

Q: Which Potency does the source give for `CCc1ccc(S(=O)(=O)Nc2cc3c(cc2N2CCOCC2)n(C)c(=O)c(=O)n3C)cc1` here?
A: inconclusive: 31.6 µM [inhibitor, partial curve, poor fit]

Q: Which Potency does the source give for `O=C(NC1CCN(c2cc(-c3ccc(Cl)cc3)[nH]n2)CC1)c1ccc2[nH]ccc2c1` here?
A: inconclusive: 10 µM [inhibitor, partial curve]

Q: Which “activity change, negative = inhibition” value does the source give for `CC1(CNC(=O)NCc2ccc(F)cc2)CCOCC1` here?
A: inactive: 4.68%

Q: Which Potency does the source give for `Cc1ccccc1-c1[nH]nc2ncc(-c3c(C)noc3C)nc12` here?
A: inconclusive: 35.5 µM [inhibitor, partial curve, poor fit]

Q: `O=c1c(N2CCCCC2)csc2ccc(F)cc12` was tested. Which Potency did it give?
A: inconclusive: 17.8 µM [inhibitor, partial curve, poor fit]

Q: Which Potency does the source give for `CN(C)CC1(O)CCC2(CCN(C(=O)c3cnccn3)CC2)CC1` here?
A: inconclusive: 8.91 µM [inhibitor, partial curve]

Q: `O=C(NCc1nnc2n1CCC2)Nc1ccccc1` was tested. Which “activity change, negative = inhibition” value did it give?
A: inactive: 7.81%

Q: For `CCc1nc2ccc(C(=O)NCc3cccc(Br)c3)cc2nc1CC`, which Potency is on record?
A: inconclusive: 39.8 µM [inhibitor, single point]

Q: For `CCOc1cccc(C=Nc2cccc3ccccc23)c1`, which Potency is on record?
A: inconclusive: 28.2 µM [inhibitor, partial curve, poor fit]

Q: `CN(CC(=O)OC(C)(C)C)C(=O)/C=C/c1cccc(C#N)c1` was tested. Which “activity change, negative = inhibition” value did it give?
A: inactive: 12.8%

Q: How did the “activity change, negative = inhibition” value turn out when `O=C(Nc1ccc2c(N3CCCC3)ncnc2c1)c1c(F)cccc1F` was run?
A: inactive: 5.4%

Q: `O=C(c1ccccc1Cl)N1CCN(c2ncccn2)CC1` was tested. Which Potency did it give?
A: inconclusive: 22.4 µM [inhibitor, single point]

Q: How did the Potency turn out when `Cc1ccc(C(=O)Nc2ccc(Br)cc2)cc1S(=O)(=O)NCc1ccccc1` was run?
A: inconclusive: 2.24 µM [inhibitor, partial curve, poor fit]

Q: `O=C(Cn1ncc2c3ccccc3n(Cc3ccccc3F)c2c1=O)NCCCc1ccccc1` was tested. Which Potency did it give?
A: inconclusive: 20 µM [inhibitor, partial curve, poor fit]

Q: `CCOc1ccc2nc(NC(=O)c3ccccc3)sc2c1` was tested. Which Potency did it give?
A: inconclusive: 11.2 µM [inhibitor, partial curve, poor fit]

Q: `CC(C)(C)NC(=O)N1CCCCCCNC(=O)[C@@H]2C[C@@H](C(=O)N3CCN(c4ccccn4)CC3)C[C@@H]21` was tested. Which Potency did it give?
A: inconclusive: 25.1 µM [inhibitor, partial curve, poor fit]

Q: How did the Potency turn out when `O=S(=O)(c1ccc(Cl)cc1)c1nc(-c2ccccc2F)oc1NCCCN1CCOCC1` was run?
A: inconclusive: 28.2 µM [inhibitor, single point]

Q: `c1ccc2[nH]c(CCCn3ccnc3-c3cc4n(n3)CCCNC4)nc2c1` was tested. Which Potency did it give?
A: inconclusive: 28.2 µM [inhibitor, partial curve, poor fit]

Q: With `COCCNC(=O)c1ccc(-c2nc(CN3CCc4ccccc43)c(C)o2)cc1` as the compound, how does the Potency read?
A: inconclusive: 39.8 µM [inhibitor, single point]

Q: For `Cc1cccc(NC(=O)c2cc3c(=O)n4ccccc4nc3n2C)c1C`, which Potency is on record?
A: inconclusive: 22.4 µM [inhibitor, partial curve, poor fit]

Q: `O=C(Cn1ccn2nc3c(c2c1=O)CCCC3)Nc1ccccc1` was tested. Which Potency did it give?
A: inconclusive: 35.5 µM [inhibitor, partial curve, poor fit]

Q: Which Potency does the source give for `COc1ccc(-c2cn3c(n2)CO[C@@H](CNC(=O)C2CCCC2)C3)cc1` here?
A: inconclusive: 44.7 µM [inhibitor, partial curve, poor fit]

Q: With `Cc1ccc(-n2c(SCC(=O)Nc3ccc4c(c3)OCCO4)nc3c([nH]c4ccccc43)c2=O)cc1` as the compound, how does the Potency read?
A: inconclusive: 15.8 µM [inhibitor, partial curve, poor fit]

Q: How did the “activity change, negative = inhibition” value turn out when `N#CC1=C(N)OC2=C(C(=O)CC(c3ccccc3)C2)C1C1CCCCC1` (stereo not drawn) was run?
A: inactive: 3.4%

Q: For `Cc1ccc(-n2nc3n(c2=O)CCN(C(=O)c2ccccc2C)C3)cc1`, which Potency is on record?
A: inconclusive: 35.5 µM [inhibitor, single point]

Q: How did the Potency turn out when `Cc1ccccc1-c1[nH]nc2ncc(-c3cn[nH]c3)nc12` was run?
A: inconclusive: 39.8 µM [inhibitor, partial curve, poor fit]

Q: Which Potency does the source give for `Cc1ccc2c(C(=O)NCc3ccccc3Cl)cc(NC(=O)C(C)C)cc2n1` here?
A: active: 14.1 µM

Q: `CCOC(=O)C1CCN(C(=O)Cn2ncc3c4ccccc4n(C)c3c2=O)CC1` was tested. Which Potency did it give?
A: inconclusive: 35.5 µM [inhibitor, single point]

Q: With `CN(C)c1ncnc2sc3c(c12)CCN(Cc1ccco1)C3` as the compound, how does the Potency read?
A: inconclusive: 28.2 µM [inhibitor, partial curve, poor fit]

Q: Which “activity change, negative = inhibition” value does the source give for `CN(CCc1nc2c([nH]1)CC(C)(C)CNC2=O)c1ccccc1` here?
A: inactive: -19.4%

Q: For `CCOC(=O)C1(Cc2ccc(Cl)cc2)CCN(Cc2ccc(OC)cc2O)CC1`, which Potency is on record?
A: inconclusive: 5.01 µM [inhibitor, full curve, poor fit]

Q: `CCC1(c2ccc(C)cc2)NC(=O)N(Cc2ncc(-c3ccccc3)o2)C1=O` (stereo not drawn) was tested. Which “activity change, negative = inhibition” value did it give?
A: inactive: -3.88%

Q: How did the Potency turn out when `CCCOc1ccc(C2C(C(=O)c3ccc(C)o3)=C(O)C(=O)N2Cc2ccco2)cc1OCC` (stereo not drawn) was run?
A: inconclusive: 14.1 µM [inhibitor, partial curve, poor fit]

Q: With `Cc1cc(Cn2cc3c4c(cccc42)[C@H](CC(C)C)N[C@H](C(=O)NCc2ccc(C)o2)C3)no1` as the compound, how does the “activity change, negative = inhibition” value read?
A: inactive: -15.3%

Q: Which “activity change, negative = inhibition” value does the source give for `O=C1OC[C@@H]2CCN(Cc3ccc(C(F)(F)F)cc3)Cc3ccc(F)cc3N12` here?
A: inactive: 3.8% [at 86.2 µM]

Q: With `CC(=O)N1Cc2ccccc2CC2(CCN(CCc3ccccc3)C2)C1` (stereo not drawn) as the compound, how does the Potency read?
A: inconclusive: 79.4 µM [inhibitor, partial curve, poor fit]

Q: `Cc1noc(-c2ccco2)c1C(=O)NCCOc1ccccc1` was tested. Which “activity change, negative = inhibition” value did it give?
A: inactive: -28%

Q: For `Cc1ccc(NC(=O)N2Cc3[nH]cnc3C[C@H]2c2nc(-c3ccncc3)no2)cc1`, which “activity change, negative = inhibition” value is on record?
A: inactive: -28.2% [at 86.2 µM]

Q: `C[C@@H]1CN(C(=O)c2ccc(C(F)(F)F)cc2)C[C@@]1(O)C1CC1` was tested. Which “activity change, negative = inhibition” value did it give?
A: inactive: 36.4%

Q: Which “activity change, negative = inhibition” value does the source give for `CCCCCCCCS(=O)CCCCO` (stereo not drawn) here?
A: inactive: 12.4%

Q: `O=C(c1cccn1-c1nnc(N2CCCCC2)s1)N1CCN(c2ccccc2)CC1` was tested. Which activity change, negative = inhibition did it give?
A: inconclusive: -30.4% [inhibitor]

Q: How did the Potency turn out when `COC(=O)c1cc(-c2cccc(OC)c2)nc2ccccc12` was run?
A: inconclusive: 35.5 µM [inhibitor, single point]

Q: How did the Potency turn out when `O=C(Cc1c(F)cccc1Cl)NCC(=O)N1CCN(c2ccccn2)CC1` was run?
A: active: 25.1 µM

Q: How did the Potency turn out when `CCOc1ccccc1CN1CCC2(CCN(C(=O)Nc3ccc(Cl)cc3)CC2)Oc2ccccc21` was run?
A: inconclusive: 11.2 µM [inhibitor, partial curve]

Q: For `CN1CC(=O)N(C2CCCNCC2)Cc2c1ncnc2N1CCCC(CO)C1` (stereo not drawn), which Potency is on record?
A: inconclusive: 50.1 µM [inhibitor, partial curve, poor fit]

Q: How did the “activity change, negative = inhibition” value turn out when `Cc1ccc(C)c(C(=O)N2CCCC(n3cc(-c4nc(C(C)C)no4)nn3)C2)c1` (stereo not drawn) was run?
A: inactive: -10.5%

Q: `Cc1ccc(NC(=O)N2CCC(N3CC4CC(C3)[C@H]3CCCC(=O)N3C4)CC2)cc1F` (stereo partly drawn) was tested. Which Potency did it give?
A: inconclusive: 31.6 µM [inhibitor, partial curve, poor fit]

Q: How did the Potency turn out when `COc1cccc(CC(=O)NCc2nnc3c(-c4nc(C)no4)cccn23)c1` was run?
A: active: 17.8 µM
